# Source: the supplement of paper PMC4604168 (melanoma cell lines)
# Some of the results follow. Many values rest on one well or one pass, so single values are uncertain.
# Tested on: COLO829
# Assay: cell count relative to DMSO control; melanoma cells; higher = more viable cells
# Conditions: library dose: standard library concentration; 72 h
# 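Also: cells treated in 1,536-well plates, then fixed and DAPI-stained, with nuclei counted from automated high-throughput microscope images.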
row,SMILES,cell count
1,"N#CC[C@H](C1CCCC1)n1cc(-c2ncnc3[nH]ccc23)cn1 [ruxolitinib] + Oc1cc(-c2nc(-c3ccccc3)[nH]c2-c2ccncc2)ccc1Cl [L779450] (first compound 5 µM, partner dose 1 µM)",99.4%
2,"N#CC[C@H](C1CCCC1)n1cc(-c2ncnc3[nH]ccc23)cn1 [ruxolitinib] + CN(c1ncccc1CNc1nc(Nc2ccc3c(c2)CC(=O)N3)ncc1C(F)(F)F)S(C)(=O)=O [PF562271] (first compound 5 µM, partner dose 0.4 µM)",73.9%
3,"Cc1cc(Nc2cc(N3CCN(C)CC3)nc(Sc3ccc(NC(=O)C4CC4)cc3)n2)n[nH]1 [Tozasertib] + COc1ccc(C2=N[C@@H](c3ccc(Cl)cc3)[C@@H](c3ccc(Cl)cc3)N2C(=O)N2CCNC(=O)C2)c(OC(C)C)c1 [Nutlin-3] (first compound 0.03 µM, partner dose 0.5 µM)",60%
4,"CC[C@]1(O)C[C@H]2CN(CCc3c([nH]c4ccccc34)[C@@](C(=O)OC)(c3cc4c(cc3OC)N(C=O)[C@H]3[C@@](O)(C(=O)OC)[C@H](OC(C)=O)[C@]5(CC)C=CCN6CC[C@]43[C@@H]65)C2)C1 [vincristine] + Cc1cc(Nc2cc(N3CCN(C)CC3)nc(/C=C/c3ccccc3)n2)n[nH]1 [ENMD2076] (first compound 0.0005 µM, partner dose 0.2 µM)",70.4%
5,"Cc1cc(Nc2cc(N3CCN(C)CC3)nc(Sc3ccc(NC(=O)C4CC4)cc3)n2)n[nH]1 [Tozasertib] + Cc1cc(N2CCOCC2)cc2[nH]c(-c3c(NC[C@@H](O)c4cccc(Cl)c4)cc[nH]c3=O)nc12 [BMS536924] (first compound 0.03 µM, partner dose 1 µM)",104%
